# Measured values: the supplement of paper PMC9135407
# “And” between values parts separate entries of the source, which are not always exact repeats. Equal entries are not always repeated. Hit rate of the full screen: of about 5,800 compounds, about 620 (11%) showed activity.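 How the source made its calls: active = score above a cut-off or among the top three wells of a plate; in these data no inactive exceeds 0.85.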 The list shows a part of the results, in another mix than the full data.
# System: primary human hepatic stellate cells (donor 1)
# Experiment: scaled lipid accumulation score (0 = DMSO-like, 1 = nortriptyline-like); higher = stronger HSC inactivation (lipid re-accumulation), active = hit call of the paper
# Settings: 48 h
# [1] = library stock concentration: 3.33 mM
# [2] = library stock concentration: 4.4 mM
# [3] = library stock concentration: 10 mM
# [4] = library stock concentration: 80 uM
# [5] = library stock concentration: 400 uM
# [6] = library stock concentration: 2 mM
compound,measurement,setting,value
CCCCC(C)(O)CC=CC1C(O)CC(=O)C1CCCCCCC(=O)OC (stereo not given) [8-iso Misoprostol],scaled lipid accumulation score,library stock concentration: 1 mM,inactive: ≤ 0
CCOC(=O)C1=C(C)NC(C)=C(C(=O)OCC)C1c1ccccc1/C=C/C(=O)OC(C)(C)C [Lacidipine],scaled lipid accumulation score,[1],inactive: 0.203
same,scaled lipid accumulation score,[2],inactive: 0.419
same,scaled lipid accumulation score,[3],inactive: 0.745
CCOC(=O)C1=C(C)NC(C)=C(C(=O)OCC)C1c1ccccc1/C=C/C(=O)OC(C)(C)C,scaled lipid accumulation score,[3],inactive: 0.437
C[C@@H](Oc1cc(-n2cnc3ccc(CN4CCN(C)CC4)cc32)sc1C(N)=O)c1ccccc1C(F)(F)F,scaled lipid accumulation score,[1],active: 1.22
CCOc1cc(CC(=O)N[C@@H](CC(C)C)c2ccccc2N2CCCCC2)ccc1C(=O)O [Repaglinide],scaled lipid accumulation score,,inactive: 0.023
same,scaled lipid accumulation score,[1],inactive: ≤ 0
same,scaled lipid accumulation score,[2],inactive: 0.035
same,scaled lipid accumulation score,[3],inactive: ≤ 0 and inactive: 0.025
CCOc1cc(CC(=O)N[C@@H](CC(C)C)c2ccccc2N2CCCCC2)ccc1C(=O)O,scaled lipid accumulation score,[3],inactive: ≤ 0
O=C(O)C(Cc1c[nH]c2ccccc12)N1C(=O)c2ccccc2C1=O (stereo not given),scaled lipid accumulation score,[4],inactive: ≤ 0
same,scaled lipid accumulation score,[5],inactive: ≤ 0
same,scaled lipid accumulation score,[6],inactive: ≤ 0
same,scaled lipid accumulation score,[1],inactive: ≤ 0
same,scaled lipid accumulation score,[3],inactive: 0.017 and inactive: ≤ 0
CNC(=O)c1ccccc1Nc1nc(Nc2ccc(N3CCOCC3)cc2OC)ncc1Cl,scaled lipid accumulation score,[4],inactive: ≤ -0.016
same,scaled lipid accumulation score,[5],inactive: ≤ -0.016
same,scaled lipid accumulation score,[6],inactive: ≤ -0.016
same,scaled lipid accumulation score,[1],inactive: ≤ 0
same,scaled lipid accumulation score,[3],inactive: ≤ 0 and inactive: ≤ -0.016
CC1=C(C(=O)Nc2cc3cn[nH]c3cc2F)C(c2ccc(C(F)(F)F)cc2)CC(=O)N1 (stereo not given),scaled lipid accumulation score,[4],inactive: 0.022
same,scaled lipid accumulation score,[5],inactive: ≤ 0 and inactive: ≤ -0.005
same,scaled lipid accumulation score,[6],inactive: 0.014 and inactive: ≤ -0.005
same,scaled lipid accumulation score,[1],inactive: ≤ 0
same,scaled lipid accumulation score,[3],inactive: ≤ 0 and inactive: 0.096 and inactive: 0.308
O=NN(CCCl)C(=O)NCCCl [Carmustine],scaled lipid accumulation score,library stock concentration: 9.3 mM,inactive: ≤ 0
same,scaled lipid accumulation score,[3],inactive: ≤ 0
CCOC(=O)c1ncn2c1CN(C)C(=O)c1cc(F)ccc1-2 [Flumazenil],scaled lipid accumulation score,[1],inactive: ≤ 0
same,scaled lipid accumulation score,library stock concentration: 6.6 mM,inactive: ≤ -0.006
same,scaled lipid accumulation score,[3],inactive: ≤ 0 and inactive: ≤ -0.07 and inactive: ≤ -0.006
CCOC(=O)c1ncn2c1CN(C)C(=O)c1cc(F)ccc1-2,scaled lipid accumulation score,[3],inactive: ≤ 0
CC[C@H](NC(=O)c1c(C)c(-c2ccccc2)nc2ccccc12)c1ccccc1,scaled lipid accumulation score,[3],inactive: ≤ 0 and inactive: 0.028
COc1cc(/C=C/c2ccc(O)cc2)cc(OC)c1,scaled lipid accumulation score,[3],inactive: ≤ 0
C[C@@H](N)C1CCC(C(=O)Nc2ccncc2)CC1 (stereo not given in full),scaled lipid accumulation score,[1],inactive: ≤ 0
